Data from PubChem BioAssay AID624296 (National Center for Advancing Translational Sciences (NCATS), 2012).
Screen size: about 350,000 compounds; about 9,900 (2.8%) were called active. Inconclusive results, whose numbers are uncertain, are shown with a selection of clear calls. The call rests on the fitted dose curve; in most records, active means well fitted activation curve with a large enough effect; inconclusive means small, poorly fitted or top-dose-only effect; inactive means no such curve, though single readings can be large or run the other way. Potencies of inconclusive entries are left out as doubtful fits.

Experiment: A quantitative high throughput screen for small molecules that induce DNA re-replication in MCF 10a normal breast cells. Further: nearly all actives have a fitted effect of over 50% in size. On activity, positive = re-replication: % of control where 0% means no effect.
Details: MCF 10A DNA re-replication, Hoechst nuclear intensity, 48 h; activity, positive = re-replication: at 46.1 µM (top of the series)
Potency means the concentration at half of the fitted maximal effect; tags describe the fitted curve by direction and shape.

Row | Structure (SMILES) | Potency | activity, positive = re-replication
1 | O=C1c2ccccc2C(=O)C1c1ccc(Br)cc1 | inactive | –
2 | CCCCSc1nc(O)c(C2OC(=O)c3c2ccc(OC)c3OC)c(=O)n1C (configuration not stated) | inconclusive [activator, partial curve, poor fit] | –
3 | CCN(CC)S(=O)(=O)c1ccc(N2CC(C(=O)NCCc3ccc(Cl)cc3)CC2=O)cc1 (configuration not stated) | inconclusive [activator, single point] | –
4 | CC1(C)C2C/C(=N\O)C(C)(/[N+]([O-])=C/c3cccc([N+](=O)[O-])c3)CC21 (configuration not stated) | – | inactive: -2.78%
5 | Cc1ccc(-n2nnnc2SCC(=O)NCC2(N3CCCCC3)CCCCC2)c(C)c1 | inconclusive [activator, single point] | –
6 | Cc1ccc(C#N)c(SCc2nnc(-c3ccc(Cl)cc3)o2)n1 | active: 0.731 µM | –
7 | CC1CN(C(=O)/C=C/c2ccc([N+](=O)[O-])s2)CC(C)O1 (configuration not stated) | inconclusive [activator, single point] | –
8 | Cc1c(C(=O)N/N=C/c2ccc(O)c(Br)c2)sc(N)c1C#N | inconclusive [activator, single point] | –
9 | COc1ccc(-c2csc(Nc3ncccc3C)n2)cc1OC | inconclusive [activator, partial curve, poor fit] | –
10 | O=S(=O)(c1ccc(N2CCN(S(=O)(=O)c3ccccc3)CC2)nc1)N1CCCC1 | – | inactive: 4.84%
11 | CC(=O)c1cccc(NC(=O)Cc2coc3cc4c(cc23)CCC4)c1 | inconclusive [activator, partial curve, poor fit] | –
12 | CSCCC(NC(=O)c1occc1C)C(=O)O (configuration not stated) | inconclusive [activator, partial curve, poor fit] | –
13 | O=C(Cn1cnc2c(nnn2Cc2ccccc2)c1=O)NCc1ccccc1Cl | – | inactive: 0.314%
14 | O=C1c2ccccc2C(=O)N1CCc1csc(-c2ccccc2)n1 | inconclusive [activator, partial curve, poor fit] | –
15 | COc1ccccc1OCc1ccc(C(=O)Nc2ccncc2)o1 | – | inactive: 2.8%
16 | COCCCn1c(=O)c2sccc2n2c(CCCC(=O)NCC3CCCO3)nnc12 (configuration not stated) | inconclusive [activator, single point] | –
17 | COc1cc(/C=C2\C(=O)N(CCC#N)N=C2C)ccc1OCC(=O)Nc1ccccc1 | inconclusive [activator, single point] | –
18 | COc1ccc(NC(=S)NNC(=O)c2ccccc2OC(F)F)cc1 | inconclusive [activator, single point] | –
19 | O=C1c2ccc(-c3ccc(F)cc3OCc3ccccc3)cc2S(=O)(=O)c2cccc(C(=O)N3CCCC3)c21 | inconclusive [activator, partial curve, poor fit] | –
20 | N/C(=N\OC(=O)COc1ccc2ccccc2c1)c1ccccn1 | – | inactive: -2.02%
21 | CCOc1cc(/C=N/N=C(/N)c2nonc2N)cc(Br)c1OCc1ccc(Cl)cc1 | inconclusive [activator, partial curve] | –
22 | C=CCNc1nc(C)c(CNc2c(C)cc(C)cc2C)nc1C#N | inconclusive [activator, single point] | –
23 | O=C(Nc1cc(Cl)ccc1F)c1ccc(-n2cncn2)c([N+](=O)[O-])c1 | – | inactive: -1.68%

Row | Structure (SMILES) | Potency | activity, positive = re-replication
24 | C=CCNc1nc2c(c(=O)n(C)c(=O)n2C)n1Cc1ccc(F)cc1 | inconclusive [activator, full curve, poor fit] | –
25 | CN1OC[C@@H]2CN(Cc3cc(Cl)cc(Cl)c3)[C@H](c3cccc(Oc4ccccc4)c3)C[C@@H]21 | inconclusive [activator, partial curve, poor fit] | –
26 | CCOc1ccccc1NC(=O)/C(C#N)=C/c1c(C)nn(-c2ccccc2)c1Cl | inconclusive [activator, partial curve, poor fit] | –
27 | COc1ccccc1CNC(=O)C1CCCN(S(=O)(=O)c2cccc3nonc23)C1 (configuration not stated) | – | inactive: 0.353%
28 | CC(C)CC(=O)NC(c1cccs1)c1ccc2cccnc2c1O (configuration not stated) | inconclusive [activator, partial curve, poor fit] | –
29 | N#C/C(=C(/O)CSc1ncn[nH]1)c1nc2ccccc2[nH]1 | inconclusive [activator, partial curve, poor fit] | –
30 | CCOC(=O)c1nnc(-c2ccc(C)cc2)nc1Sc1ccccc1Cl | active: 7.31 µM | –
31 | CC(C)n1nc(C(=O)Nc2nc3ccccc3[nH]2)c2ccccc2c1=O | inconclusive [activator, single point] | –
32 | CN1CCN(c2ccc(NC(=O)c3ccc([N+](=O)[O-])o3)cc2Cl)CC1 | active: 1.46 µM | –
33 | O=C1c2ccccc2C(=O)N1CCCc1c[nH]c2ccccc12 | inconclusive [activator, single point] | –
34 | CCN(CC)C(=O)Oc1ccc(NC(C)=O)cc1 | – | inactive: -2.38%
35 | COC(=O)C(Cc1ccccc1)NC(=O)CCNC(=O)c1ccc(Br)cc1 (configuration not stated) | inconclusive [activator, single point] | –
36 | Clc1ccc(-c2nc3ccccn3c2CN2CCCCC2)cc1 | inconclusive [activator, partial curve, poor fit] | –
37 | O=C(CCCCCNc1nc(=S)[nH]c2ccccc12)NCCc1ccccc1 | inconclusive [activator, partial curve, poor fit] | –
38 | OC(COCCOc1ccc(Br)cc1)CN1CCCCC1 (configuration not stated) | inconclusive [activator, partial curve, poor fit] | –
39 | CC(NC(=O)CCNC(=O)c1ccco1)c1ccccc1 (configuration not stated) | – | inactive: 6.47%
40 | Cc1ccc(NC(=O)CN2C(=O)CNC2=O)cc1 | inconclusive [activator, full curve, poor fit] | –
41 | COc1ccc(NC(=O)C2CCCC2)cc1S(=O)(=O)N1CCOCC1 | – | inactive: 0.441%
42 | O=[N+]([O-])c1cccc(COc2ccc(CN3CCCC3)cc2)c1 | inconclusive [activator, partial curve, poor fit] | –
43 | O=C(C=Cc1cccs1)c1ccc(Cl)s1 | inconclusive [activator, single point] | –
44 | CCN(CC)CCCN(CC(=O)N(C)Cc1ccccc1)C(=O)c1ccc([N+](=O)[O-])cc1 | – | inactive: 0.541%
45 | CCC(=O)N(CCC(c1ccc(C)cc1)c1ccco1)Cc1ccco1 (configuration not stated) | inconclusive [activator, single point] | –
46 | Cc1ccc(C(=O)NNC(=O)C2CSC3(C)CCC(=O)N23)cc1 (configuration not stated) | inconclusive [activator, partial curve, poor fit] | –

Row | Structure (SMILES) | Potency | activity, positive = re-replication
47 | CC1CCCC(C)N1CC(O)COC1CCC(C(C)(C)C)CC1 (configuration not stated) | inconclusive [activator, full curve, poor fit] | –
48 | O=C(CCc1ccccc1)Nc1ccc(Cl)cn1 | active: 5.8 µM | –
49 | COc1ccc(C(=O)Nc2ccc(NC(=O)c3ccccc3OC)nc2)cc1 | inconclusive [activator, single point] | –
50 | C=CCn1c(SCC(=O)Nc2ccc(-c3nc4ccc(C)cc4s3)cc2)nnc1-c1ccccc1 | active: 4.11 µM | –
51 | O=S(=O)(NCCC(c1ccc(F)cc1)c1ccco1)c1ccccc1 (configuration not stated) | inconclusive [activator, partial curve, poor fit] | –
52 | O=C(NCCc1ccccc1)c1ccc(CS(=O)Cc2ccc(Cl)cc2)o1 (configuration not stated) | inconclusive [activator, single point] | –
53 | Oc1ccccc1CNCCCN1CCOCC1 | inconclusive [activator, single point] | –
54 | COc1ccc(C(=O)CN2CCN(c3cc(C)nc4ccccc34)CC2)cc1 | – | inactive: -1.36%
55 | Nc1nc(OCC2CCCCC2)c2[nH]cnc2n1 | inconclusive [activator, partial curve, poor fit] | –
56 | COc1cc2c(cc1NC(=O)C(C)Sc1ccc(NC(C)=O)cc1)oc1ccccc12 (configuration not stated) | inconclusive [activator, single point] | –
57 | CCOc1ccc(-c2nc(N)ncc2-c2ccc(Cl)cc2)c(O)c1 | inconclusive [activator, single point] | –
58 | COc1ccc(CCN(C)C(=O)COC(=O)/C=C/c2ccc(C)o2)cc1OC | – | inactive: 9.88%
59 | COc1ccc(-c2c(C#N)c(SCC(=O)c3cc4ccccc4oc3=O)nc(C)c2C(=O)Nc2ccccc2)cc1 | active: 5.17 µM | –
60 | Fc1ccc(Oc2nc(-c3ccccc3)nnc2C(F)(F)F)cc1 | inconclusive [activator, single point] | –
61 | CC(C)CC(=O)Nc1cccc2c1C(=O)N(c1ccccc1)C2=O | – | inactive: 1.35%
62 | COc1ccc(/C=N/NC(=O)CCCOc2ccc(Cl)cc2Cl)cc1 | inconclusive [activator, single point] | –
63 | CCO/C=C1\C(=O)N(c2ccccc2)C(=O)c2ccccc21 | inconclusive [activator, single point] | –
64 | CC(C)CCN(C(=O)CNC(=O)c1ccco1)C(C(=O)NC1CCCCC1)c1ccco1 (configuration not stated) | inconclusive [activator, single point] | –
65 | O=C(Cc1ccccc1)Nc1ccccc1Oc1ccccc1 | inconclusive [activator, partial curve] | –
66 | Cc1nccn1CCCNC(=O)c1nc(Cn2cc([N+](=O)[O-])cn2)no1 | inconclusive [activator, partial curve] | –
67 | Cc1ccccc1Cn1ccc(NC(=O)CCSc2nc(-c3ccco3)cc(C(F)(F)F)n2)n1 | inconclusive [activator, partial curve, poor fit] | –
